Among the data in US20240124614A1 are ECM binding vs Control Ab (pH 5.8) (fold vs Control Ab) and ECM binding vs Control Ab (pH 7.4) (fold vs Control Ab) values, retold here.

Assay [1] has as its target ECM (extracellular matrix). Description: ECL plate assay on coated ECM (Matrigel).
In assay [2] the target is ECM (extracellular matrix). Description: ECL plate assay on coated ECM (Matrigel). The source holds these as a separate data set.

Positions count from the first letter of the chain named. Where two headings read alike, the source gives them in different places.

B1: hT4VL.FRv40480 (antibody, human IgG1, kappa)
heavy: EVQLVESGGGLVQPGGSLRLSCAASGYTFTSYVMHWVRQAPGKGLEWVSAINPYNDGNYYADSVKGRFTISRDNSRKTLYLQMNSLRAEDTAVYYCARGAYKRGYAMDYWGQGTTVTVSSASTKGPSVFPLAPSSKSTSGGTAALGCLVKDYFPEPVTVSWNSGALTSGVHTFPAVLQSSGLYSLSSVVTVPSSSLGTQTYICNVNHKPSNTKVDKKV[human IgG1 Fc not given here]GSGGGSVTGYRLFEEIL
light: DLVMTQSPSSLSASVGDRVTITCKSSQSLFNSKTSKNYLAWYQQKPGKAPKLLIYWASTRESGVPARFSGSGSGTDFTLTISSLEPEDFAVYYCQQYYYHMYTFGQGTKVEIKRTVAAPSVFIFPPSDEQLKSGTASVVCLLNNFYPREAKVQWKVDNALQSGNSQESVTEQDSKDSTYSLSSTLTLSKADYEKHKVYACEVTHQGLSSPVTKSFNRGEC
In assay [1], B1 registered an ECM binding vs Control Ab (pH 5.8) (fold vs Control Ab) of 42.5 and an ECM binding vs Control Ab (pH 7.4) (fold vs Control Ab) of 3.38.

B2: hT4VL.FRv40435 (antibody, human IgG1, kappa)
heavy: B1 heavy
light: B1 light with K33R, S35R, Y102E
As to B2, in assay [2], the ECM binding vs Control Ab (pH 5.8) (fold vs Control Ab) amounted to 97.8 and the ECM binding vs Control Ab (pH 7.4) (fold vs Control Ab) came out at 15.

B3: hT4VL.FRv40495 (antibody, human IgG1, kappa)
heavy: B1 heavy
light: B1 light with K33R, S35R, H100P, M101D
In assay [1], B3 had an ECM binding vs Control Ab (pH 5.8) (fold vs Control Ab) of 47.5 and an ECM binding vs Control Ab (pH 7.4) (fold vs Control Ab) of 12.9.

B4: hT4VL.FRv40491 (antibody, human IgG1, kappa)
heavy: B1 heavy
light: B1 light with S35R, Y97E
In the case of B4, in assay [1], the ECM binding vs Control Ab (pH 5.8) (fold vs Control Ab) was found to be 69.5 and the ECM binding vs Control Ab (pH 7.4) (fold vs Control Ab) turned out to be 6.17.

B5: hT4VL.FRv40493 (antibody, human IgG1, kappa)
heavy: B1 heavy
light: B1 light with K33R, S35R, Y97E, H100P
In assay [1], B5 returned an ECM binding vs Control Ab (pH 5.8) (fold vs Control Ab) of 66.1 and an ECM binding vs Control Ab (pH 7.4) (fold vs Control Ab) of 11.2.

B6: hT4VL.FRv40074 (antibody, human IgG1, kappa)
heavy: B1 heavy
light: B1 light with S28D, K33R, S35R
Turning to B6, in assay [2], the ECM binding vs Control Ab (pH 5.8) (fold vs Control Ab) was determined as 96.1 and the ECM binding vs Control Ab (pH 7.4) (fold vs Control Ab) came out at 6.8.

B7: hT4VL.FRv40399 (antibody, human IgG1, kappa)
heavy: B1 heavy
light: B1 light with K33R, S35R, H100E
In assay [2], B7 displayed an ECM binding vs Control Ab (pH 5.8) (fold vs Control Ab) of 53.1 and an ECM binding vs Control Ab (pH 7.4) (fold vs Control Ab) of 8.6.

B8: hT4VL.FRv40492 (antibody, human IgG1, kappa)
heavy: B1 heavy
light: B1 light with K33R, S35R, Q95H, H100P
As to B8, in assay [1], the ECM binding vs Control Ab (pH 5.8) (fold vs Control Ab) was found to be 65 and the ECM binding vs Control Ab (pH 7.4) (fold vs Control Ab) is 12.4.

B9: hT4VL.FRv40498 (antibody, human IgG1, kappa)
heavy: B1 heavy
light: B1 light with K33R, S35R, H100E, M101N
With B9, in assay [1], the ECM binding vs Control Ab (pH 5.8) (fold vs Control Ab) came out at 44 and the ECM binding vs Control Ab (pH 7.4) (fold vs Control Ab) was 7.71.

B10: hT4VL.FRv40488 (antibody, human IgG1, kappa)
heavy: B1 heavy
light: B1 light with S35R, Q95H
In assay [1], B10 had an ECM binding vs Control Ab (pH 5.8) (fold vs Control Ab) of 74.5 and an ECM binding vs Control Ab (pH 7.4) (fold vs Control Ab) of 9.74.

B11: hT4VL.FRv40407 (antibody, human IgG1, kappa)
heavy: B1 heavy
light: B1 light with K33R, S35R, H100P
As for B11, in assay [2], the ECM binding vs Control Ab (pH 5.8) (fold vs Control Ab) is 81.3 and the ECM binding vs Control Ab (pH 7.4) (fold vs Control Ab) was 13.1.

B12: hT4VL.FRv40424 (antibody, human IgG1, kappa)
heavy: B1 heavy
light: B1 light with K33R, S35R, M101N
B12: in assay [2], the ECM binding vs Control Ab (pH 5.8) (fold vs Control Ab) came out at 98.2 and the ECM binding vs Control Ab (pH 7.4) (fold vs Control Ab) worked out at 11.

B13: hT4VL.FRv40484 (antibody, human IgG1, kappa)
heavy: B1 heavy
light: B1 light with N31D, K33R, S35E
In assay [1], B13 returned an ECM binding vs Control Ab (pH 5.8) (fold vs Control Ab) of 10.4 and an ECM binding vs Control Ab (pH 7.4) (fold vs Control Ab) of 1.07.

B14: hT4VL.FRv40494 (antibody, human IgG1, kappa)
heavy: B1 heavy
light: B1 light with K33R, S35R, H100P, M101N
B14: in assay [1], the ECM binding vs Control Ab (pH 5.8) (fold vs Control Ab) was found to be 59.6 and the ECM binding vs Control Ab (pH 7.4) (fold vs Control Ab) stood at 10.4.

B15: hT4VL.FRv40425 (antibody, human IgG1, kappa)
heavy: B1 heavy
light: B1 light with K33R, S35R, M101P
B15: in assay [2], the ECM binding vs Control Ab (pH 5.8) (fold vs Control Ab) worked out at 98.5 and the ECM binding vs Control Ab (pH 7.4) (fold vs Control Ab) came to 12.1.

B16: hT4VL.FRv40416 (antibody, human IgG1, kappa)
heavy: B1 heavy
light: B1 light with K33R, S35R, M101D
Turning to B16, in assay [2], the ECM binding vs Control Ab (pH 5.8) (fold vs Control Ab) came to 95.9 and the ECM binding vs Control Ab (pH 7.4) (fold vs Control Ab) was 10.4.

B17: hT4VL.FRv40408 (antibody, human IgG1, kappa)
heavy: B1 heavy
light: B1 light with K33R, S35R, H100Q
In assay [2], B17 returned an ECM binding vs Control Ab (pH 5.8) (fold vs Control Ab) of 93.8 and an ECM binding vs Control Ab (pH 7.4) (fold vs Control Ab) of 15.9.

B18: hT4VL.FRv40483 (antibody, human IgG1, kappa)
heavy: B1 heavy
light: B1 light with N31D, K33R, T34D, S35R
In assay [1], B18 registered an ECM binding vs Control Ab (pH 5.8) (fold vs Control Ab) of 11.1 and an ECM binding vs Control Ab (pH 7.4) (fold vs Control Ab) of 2.11.

B19: hT4VL.FRv40485 (antibody, human IgG1, kappa)
heavy: B1 heavy
light: B1 light with N31D, K33R
As for B19, in assay [1], the ECM binding vs Control Ab (pH 5.8) (fold vs Control Ab) was determined as 13.1 and the ECM binding vs Control Ab (pH 7.4) (fold vs Control Ab) was 2.36.

B20: hT4VL.FRv40497 (antibody, human IgG1, kappa)
heavy: B1 heavy
light: B1 light with K33R, S35R, H100E, Y102P
In assay [1], B20 registered an ECM binding vs Control Ab (pH 5.8) (fold vs Control Ab) of 37.5 and an ECM binding vs Control Ab (pH 7.4) (fold vs Control Ab) of 8.21.

B21: hT4VL.FRv40128 (antibody, human IgG1, kappa)
heavy: B1 heavy
light: B1 light with N31D, K33R, S35R
In assay [2], B21 had an ECM binding vs Control Ab (pH 5.8) (fold vs Control Ab) of 36.3 and an ECM binding vs Control Ab (pH 7.4) (fold vs Control Ab) of 4.7.

B22: hT4VL.FRv40353 (antibody, human IgG1, kappa)
heavy: B1 heavy
light: B1 light with K33R, S35R, Y97N
In assay [2], B22 had an ECM binding vs Control Ab (pH 5.8) (fold vs Control Ab) of 101 and an ECM binding vs Control Ab (pH 7.4) (fold vs Control Ab) of 15.2.

B23: hT4VL.FRv40486 (antibody, human IgG1, kappa)
heavy: B1 heavy
light: B1 light with S32D, K33R, S35R, Q95H
B23: in assay [1], the ECM binding vs Control Ab (pH 5.8) (fold vs Control Ab) worked out at 46.3 and the ECM binding vs Control Ab (pH 7.4) (fold vs Control Ab) was 6.

B24: hT4VL.FRv40482 (antibody, human IgG1, kappa)
heavy: B1 heavy
light: B1 light with K24N, N31D, K33R, S35R
In assay [1], B24 gave an ECM binding vs Control Ab (pH 5.8) (fold vs Control Ab) of 22.1 and an ECM binding vs Control Ab (pH 7.4) (fold vs Control Ab) of 2.83.

B25: hT4VL.FRv40496 (antibody, human IgG1, kappa)
heavy: B1 heavy
light: B1 light with K33R, S35R, H100P, M101P
In the case of B25, in assay [1], the ECM binding vs Control Ab (pH 5.8) (fold vs Control Ab) came to 62.8 and the ECM binding vs Control Ab (pH 7.4) (fold vs Control Ab) came to 10.8.

B26: hT4VL.FRv40444 (antibody, human IgG1, kappa)
heavy: B1 heavy
light: B1 light with K33R, S35R, Y102P
In assay [2], B26 yielded an ECM binding vs Control Ab (pH 5.8) (fold vs Control Ab) of 96.4 and an ECM binding vs Control Ab (pH 7.4) (fold vs Control Ab) of 14.9.

B27: hT4VL.FRv40346 (antibody, human IgG1, kappa)
heavy: B1 heavy
light: B1 light with K33R, S35R, Y97F
For B27, in assay [2], the ECM binding vs Control Ab (pH 5.8) (fold vs Control Ab) stood at 99.2 and the ECM binding vs Control Ab (pH 7.4) (fold vs Control Ab) is 16.3.

B28: hT4VL.FRv40487 (antibody, human IgG1, kappa)
heavy: B1 heavy
light: B1 light with N31D, K33R, S35R, Q95H
For the molecule B28, in assay [1], the ECM binding vs Control Ab (pH 5.8) (fold vs Control Ab) was 31.8 and the ECM binding vs Control Ab (pH 7.4) (fold vs Control Ab) was found to be 6.94.

B29: hT4VL.FRv40481 (antibody, human IgG1, kappa)
heavy: B1 heavy
light: B1 light with K24N, S35R
In assay [1], B29 had an ECM binding vs Control Ab (pH 5.8) (fold vs Control Ab) of 73.8 and an ECM binding vs Control Ab (pH 7.4) (fold vs Control Ab) of 6.21.

B30: hT4VL.FRv40490 (antibody, human IgG1, kappa)
heavy: B1 heavy
light: B1 light with N31D, K33R, S35R, Y97E
In assay [1], B30 yielded an ECM binding vs Control Ab (pH 5.8) (fold vs Control Ab) of 33.3 and an ECM binding vs Control Ab (pH 7.4) (fold vs Control Ab) of 4.37.

B31: hT4VL.FRv40381 (antibody, human IgG1, kappa)
heavy: B1 heavy
light: B1 light with K33R, S35R, Y99E
As to B31, in assay [2], the ECM binding vs Control Ab (pH 5.8) (fold vs Control Ab) is 97.4 and the ECM binding vs Control Ab (pH 7.4) (fold vs Control Ab) worked out at 7.3.

B32: hT4VL.FRv40489 (antibody, human IgG1, kappa)
heavy: B1 heavy
light: B1 light with S32D, K33R, S35R, Y97E
On to B32, for which, in assay [1], the ECM binding vs Control Ab (pH 5.8) (fold vs Control Ab) worked out at 53.8 and the ECM binding vs Control Ab (pH 7.4) (fold vs Control Ab) turned out to be 3.92.
